Source: article PMC4460025
These are yes or no findings as the source states them, for the method shown. In cells and extracts the contact can be indirect. Some results given as binding are weak or reduced against the parent protein; the word gives no strength.

Chains of the proteins cited; added tags and fusions are not shown. Lines headed by an entry give the natural chain unless they say otherwise; changes in a name come on top.
UniProt Q99623: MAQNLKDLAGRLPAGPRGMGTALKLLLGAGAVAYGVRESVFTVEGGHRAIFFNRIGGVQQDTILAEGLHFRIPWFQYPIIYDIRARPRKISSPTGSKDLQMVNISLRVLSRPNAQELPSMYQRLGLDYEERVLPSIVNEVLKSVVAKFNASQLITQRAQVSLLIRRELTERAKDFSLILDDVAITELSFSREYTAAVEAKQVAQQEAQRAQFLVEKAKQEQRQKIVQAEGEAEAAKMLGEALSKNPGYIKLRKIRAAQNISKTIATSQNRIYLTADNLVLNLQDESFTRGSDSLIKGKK
UniProt Q5TH69: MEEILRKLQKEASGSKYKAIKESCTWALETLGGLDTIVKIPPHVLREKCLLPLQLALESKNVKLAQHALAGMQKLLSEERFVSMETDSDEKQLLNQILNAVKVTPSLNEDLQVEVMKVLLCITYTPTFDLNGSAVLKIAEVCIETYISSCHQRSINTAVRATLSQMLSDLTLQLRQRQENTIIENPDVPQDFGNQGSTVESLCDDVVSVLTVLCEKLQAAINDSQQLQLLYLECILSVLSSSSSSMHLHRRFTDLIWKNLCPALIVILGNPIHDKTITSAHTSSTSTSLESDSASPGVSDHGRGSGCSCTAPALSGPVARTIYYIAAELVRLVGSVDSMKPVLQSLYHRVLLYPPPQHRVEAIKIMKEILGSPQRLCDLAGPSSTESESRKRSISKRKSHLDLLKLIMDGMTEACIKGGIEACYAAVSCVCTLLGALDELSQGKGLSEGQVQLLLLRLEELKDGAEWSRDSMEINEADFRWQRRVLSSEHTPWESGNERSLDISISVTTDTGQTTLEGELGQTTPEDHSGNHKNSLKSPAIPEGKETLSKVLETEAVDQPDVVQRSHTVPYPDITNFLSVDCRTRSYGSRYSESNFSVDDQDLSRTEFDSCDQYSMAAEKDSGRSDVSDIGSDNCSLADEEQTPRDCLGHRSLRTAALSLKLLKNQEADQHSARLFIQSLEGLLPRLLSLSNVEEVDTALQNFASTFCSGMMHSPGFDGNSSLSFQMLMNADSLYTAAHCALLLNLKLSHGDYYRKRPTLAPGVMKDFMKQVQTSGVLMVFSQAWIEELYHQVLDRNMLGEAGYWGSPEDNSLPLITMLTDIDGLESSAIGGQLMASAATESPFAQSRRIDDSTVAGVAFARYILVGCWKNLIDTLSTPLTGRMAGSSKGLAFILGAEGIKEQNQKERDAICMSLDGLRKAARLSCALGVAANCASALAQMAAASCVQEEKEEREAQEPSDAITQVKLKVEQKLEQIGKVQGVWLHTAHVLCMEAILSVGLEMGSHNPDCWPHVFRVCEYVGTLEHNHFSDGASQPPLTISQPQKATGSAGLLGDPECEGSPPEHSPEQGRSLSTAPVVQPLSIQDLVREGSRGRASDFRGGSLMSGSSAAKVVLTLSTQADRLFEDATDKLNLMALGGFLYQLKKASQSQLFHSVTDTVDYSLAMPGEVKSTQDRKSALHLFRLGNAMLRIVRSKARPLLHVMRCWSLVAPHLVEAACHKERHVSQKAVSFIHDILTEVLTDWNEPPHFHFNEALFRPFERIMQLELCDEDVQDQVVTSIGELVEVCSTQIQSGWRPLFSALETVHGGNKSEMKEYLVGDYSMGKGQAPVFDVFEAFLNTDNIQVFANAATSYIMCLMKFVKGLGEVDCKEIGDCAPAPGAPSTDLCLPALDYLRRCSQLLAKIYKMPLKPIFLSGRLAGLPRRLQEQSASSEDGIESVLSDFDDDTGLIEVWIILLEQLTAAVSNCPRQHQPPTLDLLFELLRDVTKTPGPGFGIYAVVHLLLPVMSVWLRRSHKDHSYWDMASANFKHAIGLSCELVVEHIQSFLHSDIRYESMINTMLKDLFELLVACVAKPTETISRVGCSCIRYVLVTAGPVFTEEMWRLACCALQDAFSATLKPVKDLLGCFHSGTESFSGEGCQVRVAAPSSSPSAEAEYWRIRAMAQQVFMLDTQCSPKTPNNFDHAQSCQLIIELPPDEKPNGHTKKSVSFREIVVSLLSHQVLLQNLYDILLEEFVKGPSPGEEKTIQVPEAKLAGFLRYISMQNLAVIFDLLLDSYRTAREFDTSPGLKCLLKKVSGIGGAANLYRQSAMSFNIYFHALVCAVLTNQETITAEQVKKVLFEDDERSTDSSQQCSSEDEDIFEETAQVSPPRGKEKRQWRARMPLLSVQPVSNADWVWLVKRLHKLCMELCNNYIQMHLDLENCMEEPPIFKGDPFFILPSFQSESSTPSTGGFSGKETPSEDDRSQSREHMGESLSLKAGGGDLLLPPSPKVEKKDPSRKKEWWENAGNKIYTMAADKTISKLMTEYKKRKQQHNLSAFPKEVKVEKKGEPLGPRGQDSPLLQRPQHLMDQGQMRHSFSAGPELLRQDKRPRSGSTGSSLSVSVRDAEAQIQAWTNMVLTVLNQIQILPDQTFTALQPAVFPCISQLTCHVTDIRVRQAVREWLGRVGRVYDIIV
UniProt P52294: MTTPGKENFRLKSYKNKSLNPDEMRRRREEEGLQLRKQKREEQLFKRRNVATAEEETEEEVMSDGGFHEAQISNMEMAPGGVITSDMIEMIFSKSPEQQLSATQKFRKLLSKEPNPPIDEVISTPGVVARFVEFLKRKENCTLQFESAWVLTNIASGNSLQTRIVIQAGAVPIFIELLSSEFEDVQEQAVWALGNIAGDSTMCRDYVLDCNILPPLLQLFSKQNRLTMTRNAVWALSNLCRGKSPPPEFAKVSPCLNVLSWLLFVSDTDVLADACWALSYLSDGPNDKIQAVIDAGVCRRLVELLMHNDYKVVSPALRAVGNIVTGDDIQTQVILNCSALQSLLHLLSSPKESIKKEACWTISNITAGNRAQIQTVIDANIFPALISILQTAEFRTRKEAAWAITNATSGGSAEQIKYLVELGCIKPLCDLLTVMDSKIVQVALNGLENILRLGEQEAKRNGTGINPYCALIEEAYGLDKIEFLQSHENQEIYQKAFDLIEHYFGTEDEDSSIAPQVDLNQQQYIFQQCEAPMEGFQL
UniProt O15131: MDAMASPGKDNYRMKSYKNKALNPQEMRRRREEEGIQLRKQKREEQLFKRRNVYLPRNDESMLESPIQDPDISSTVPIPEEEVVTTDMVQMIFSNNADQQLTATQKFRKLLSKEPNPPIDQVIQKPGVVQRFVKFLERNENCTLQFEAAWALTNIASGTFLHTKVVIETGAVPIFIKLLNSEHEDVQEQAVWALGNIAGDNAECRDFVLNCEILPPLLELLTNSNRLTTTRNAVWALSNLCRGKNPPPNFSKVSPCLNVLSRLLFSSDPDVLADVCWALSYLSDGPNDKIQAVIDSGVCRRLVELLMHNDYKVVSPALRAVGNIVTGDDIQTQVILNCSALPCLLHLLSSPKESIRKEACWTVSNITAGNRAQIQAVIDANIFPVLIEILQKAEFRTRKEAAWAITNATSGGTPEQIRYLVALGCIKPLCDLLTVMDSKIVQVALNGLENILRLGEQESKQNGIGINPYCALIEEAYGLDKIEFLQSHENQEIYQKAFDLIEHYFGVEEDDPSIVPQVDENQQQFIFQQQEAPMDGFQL
UniProt P03372: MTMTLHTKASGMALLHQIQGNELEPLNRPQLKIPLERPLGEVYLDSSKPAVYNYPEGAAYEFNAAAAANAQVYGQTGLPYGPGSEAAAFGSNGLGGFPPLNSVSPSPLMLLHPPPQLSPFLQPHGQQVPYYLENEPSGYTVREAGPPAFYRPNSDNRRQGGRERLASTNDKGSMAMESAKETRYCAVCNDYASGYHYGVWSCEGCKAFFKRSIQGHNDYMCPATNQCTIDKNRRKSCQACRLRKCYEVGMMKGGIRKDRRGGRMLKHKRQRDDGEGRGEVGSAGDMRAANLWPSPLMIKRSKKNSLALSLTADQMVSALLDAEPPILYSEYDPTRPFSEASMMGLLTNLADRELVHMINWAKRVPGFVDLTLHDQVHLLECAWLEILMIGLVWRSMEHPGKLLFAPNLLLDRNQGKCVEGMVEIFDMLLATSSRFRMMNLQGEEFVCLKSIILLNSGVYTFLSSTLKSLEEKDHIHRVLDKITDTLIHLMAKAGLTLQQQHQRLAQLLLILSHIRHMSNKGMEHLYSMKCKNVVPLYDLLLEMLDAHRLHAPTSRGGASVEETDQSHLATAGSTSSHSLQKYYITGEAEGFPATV

Experiments:
[1] = target: endogenous PHB2 (human (endogenous in MCF-7)) (UniProt Q99623); assay: co-IP; MCF-7 cells treated with 10 nM E2 ± 10 μM ERAP for 1, 6 and 24 h, separated into cytoplasmic and nuclear fractions; each fraction immunoprecipitated with anti-PHB2 antibody; immunoblot of endogenous proteins
FLAG-BIG3 = FLAG-BIG3 (UniProt Q5TH69); assay: co-IP; HEK293T cells co-transfected with partial HA-PHB2 constructs and FLAG-BIG3; 48 h; lysates immunoprecipitated with anti-FLAG antibody; immunoblot
[2] = target: FLAG-tagged KPNA1 (human) (UniProt P52294); assay: co-IP; COS-7 cells co-transfected with HA-PHB2 constructs and FLAG-KPNAs; 48 h; 0.1% NP-40 lysis buffer; anti-FLAG M2 agarose 12 h at 4°C, eluted with 3x FLAG-peptide; immunoblot with anti-HA
[3] = target: FLAG-tagged KPNA5 (human) (UniProt O15131); assay: as above
[4] = target: FLAG-tagged KPNA6 (human) (UniProt O60684); assay: as above
[5] = target: endogenous PHB2 (human (endogenous in MCF-7)) (UniProt Q99623); assay: co-IP; MCF-7 cells treated with siKPNAs followed by E2 ± ERAP for 24 h; lysates immunoprecipitated with anti-PHB2 antibody; immunoblot with antibodies against each KPNA
[6] = target: endogenous estrogen receptor alpha (ERα) (human (endogenous in MCF-7)) (UniProt P03372); assay: co-IP; MCF-7 cytoplasmic and nuclear fractions immunoprecipitated with anti-ERα antibody; cells treated with E2 ± ERAP (1, 6, 24 h), with siBIG3 and/or siKPNAs; immunoblot of endogenous proteins

| Substance | binding [1] | binding [5] | binding [6] | binding (FLAG-BIG3) | binding [2] | binding [3] | binding [4] |
| --- | --- | --- | --- | --- | --- | --- | --- |
| endogenous BIG3 (from UniProt Q5TH69 1-2177) | binds | – | – | – | – | – | – |
| HA-PHB2 (190–299) (from UniProt Q99623 190-299) (domain or fragment) | – | – | – | no binding | no binding | no binding | no binding |
| HA-PHB2 (1–189) (from UniProt Q99623 1-189) (domain or fragment) | – | – | – | binds | binds | binds | binds |

Further lines, with some results ahead:

| binding [1] | binding [5] | binding [6] | Substance | binding (FLAG-BIG3) | binding [2] | binding [3] | binding [4] |
| --- | --- | --- | --- | --- | --- | --- | --- |
| binds | binds | – | endogenous KPNA1 (from UniProt P52294 1-538) | – | – | – | – |
| binds | binds | no binding | endogenous KPNA5 (from UniProt O15131 1-539) | – | – | – | – |
| binds | binds | no binding | endogenous KPNA6 (from UniProt O60684 1-536) | – | – | – | – |
